To fix the notation:
B1: TEV protease; numbered along this chain (parent)
chain: MGESLFKGPRDYNPISSSICHLTNESDGHTTSLYGIGFGPFIITNKHLFRRNNGTLVVQSLHGVFKVKDTTTLQQHLVDGRDMIIIRMPKDFPPFPQKLKFREPQREERICLVTTNFQTKSMSSMVSDTSCTFPSGDGIFWKHWIQTKDGQCGSPLVSTRDGFIVGIHSASNFTNTNNYFTSVPKNFMELLTNQEAQQWVSGWRLNADSVLWGGHKVFMVKPEEPFQPVKEATQL

This experiment covers variants of B1. The experiment is described as follows: raw area under fraction-flipped curve 0-4 h after induction (AUC4h, not background-subtracted), DNA-recorder readout of cleavage of the substrate (dimensionless); higher = more cleavage of the substrate by the protease variant. Conditions: temperature: 34 °C; time window: 0-4 h after rhamnose induction. How it is done:
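In vivo DNA recorder in E. coli TOP10(DE3) ΔrhaA at 34 °C. Each TEVp single-site mutant (parent TEVp 0) is paired with a single-site variant of the 7-mer TEVs (canonical ENLYFQ|S). The substrate sits between flexible linkers in a Bxb1-sfGFP-TEVs-SsrA fusion, so cleavage stabilises Bxb1 and speeds flipping of a recombination array, read by NGS. The value is the raw area under the fraction-flipped curve over 0-4 h after rhamnose induction (AUC4h), with ≥20 reads per time point. It is not background-subtracted; inactive controls average about 0.047.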

This is one part of the list. The full chains were built here from the parent and the listed change. Inactive controls read about 0.05.
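Also: Bxb1 expression induced with 0.2% (w/v) L-rhamnose at OD600 near 0.5, cultures sampled hourly, flipped fraction per protease–substrate barcode pair counted by paired-end Illumina sequencing.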

With MGESLFKGPRDYNPISSSICHLTNESDGHTTYLYGIGFGPFIITNKHLFRRNNGTLVVQSLHGVFKVKDTTTLQQHLVDGRDMIIIRMPKDFPPFPQKLKFREPQREERICLVTTNFQTKSMSSMVSDTSCTFPSGDGIFWKHWIQTKDGQCGSPLVSTRDGFIVGIHSASNFTNTNNYFTSVPKNFMELLTNQEAQQWVSGWRLNADSVLWGGHKVFMVKPEEPFQPVKEATQL [S32Y], the “area with substrate ENLYFQA” value was 0.0879, the “area with substrate ENLYFQC” value is 0.0982, the “area with substrate ENLYFQD” value was 0.0723 and the “area with substrate ENLYFQE” value was determined as 0.0575. For the same variant, the “area with substrate ENLYFQF” value came to 0.0714, the “area with substrate ENLYFQG” value is 0.106, the “area with substrate ENLYFQH” value is 0.0812 and the “area with substrate ENLYFQK” value came to 0.0632. Besides, the “area with substrate ENLYFQL” value was 0.0542, the “area with substrate ENLYFQM” value came to 0.094, the “area with substrate ENLYFQN” value was determined as 0.0896 and the “area with substrate ENLYFQP” value was 0.055. Further, the “area with substrate ENLYFQR” value is 0.0494, the “area with substrate ENLYFQS” value was found to be 0.0974, the “area with substrate ENLYFQT” value is 0.0576 and the “area with substrate ENLYFQW” value worked out at 0.056.

Regarding MGESLFKGPRDYNPISSSICHLTNESDGHTTSLYGIGFGPFIIFNKHLFRRNNGTLVVQSLHGVFKVKDTTTLQQHLVDGRDMIIIRMPKDFPPFPQKLKFREPQREERICLVTTNFQTKSMSSMVSDTSCTFPSGDGIFWKHWIQTKDGQCGSPLVSTRDGFIVGIHSASNFTNTNNYFTSVPKNFMELLTNQEAQQWVSGWRLNADSVLWGGHKVFMVKPEEPFQPVKEATQL [T44F], the “area with substrate ENLYFQA” value turned out to be 0.053, the “area with substrate ENLYFQC” value was determined as 0.0571, the “area with substrate ENLYFQD” value is 0.0597 and the “area with substrate ENLYFQF” value came out at 0.0348. Also, the “area with substrate ENLYFQH” value came to 0.0529, the “area with substrate ENLYFQI” value worked out at 0.0713, the “area with substrate ENLYFQL” value amounted to 0.0609 and the “area with substrate ENLYFQM” value worked out at 0.0551. In addition, the “area with substrate ENLYFQN” value is 0.0597, the “area with substrate ENLYFQR” value is 0.0501, the “area with substrate ENLYFQS” value turned out to be 0.0541 and the “area with substrate ENLYFQT” value was 0.0455. Besides, the “area with substrate ENLYFQW” value turned out to be 0.0347.

Turning to MGESLFKGPRDYNPISSSICHLTNESDGHTTSLYGIGFGPFIIANKHLFRRNNGTLVVQSLHGVFKVKDTTTLQQHLVDGRDMIIIRMPKDFPPFPQKLKFREPQREERICLVTTNFQTKSMSSMVSDTSCTFPSGDGIFWKHWIQTKDGQCGSPLVSTRDGFIVGIHSASNFTNTNNYFTSVPKNFMELLTNQEAQQWVSGWRLNADSVLWGGHKVFMVKPEEPFQPVKEATQL [T44A], the “area with substrate ENLYFQA” value turned out to be 0.0759, the “area with substrate ENLYFQC” value amounted to 0.111, the “area with substrate ENLYFQD” value was 0.0415 and the “area with substrate ENLYFQF” value came to 0.0592. Also, the “area with substrate ENLYFQG” value was 0.0819, the “area with substrate ENLYFQH” value was found to be 0.0742, the “area with substrate ENLYFQI” value stood at 0.0192 and the “area with substrate ENLYFQK” value amounted to 0.0567. Further, the “area with substrate ENLYFQL” value is 0.0604, the “area with substrate ENLYFQM” value worked out at 0.0644, the “area with substrate ENLYFQN” value is 0.0502 and the “area with substrate ENLYFQP” value was 0.0424. The “area with substrate ENLYFQR” value came to 0.059, the “area with substrate ENLYFQS” value was 0.0909, the “area with substrate ENLYFQT” value was 0.0739 and the “area with substrate ENLYFQV” value amounted to 0.0608. The “area with substrate ENLYFQW” value is 0.0516 and the “area with substrate ENLYFQY” value was 0.0674.

On to MGESLFKGPRDYNPISSSICHLTNESDGHTTSLYGIGFAPFIITNKHLFRRNNGTLVVQSLHGVFKVKDTTTLQQHLVDGRDMIIIRMPKDFPPFPQKLKFREPQREERICLVTTNFQTKSMSSMVSDTSCTFPSGDGIFWKHWIQTKDGQCGSPLVSTRDGFIVGIHSASNFTNTNNYFTSVPKNFMELLTNQEAQQWVSGWRLNADSVLWGGHKVFMVKPEEPFQPVKEATQL [G39A], for which the “area with substrate ENLYFQA” value turned out to be 0.046, the “area with substrate ENLYFQC” value turned out to be 0.0542, the “area with substrate ENLYFQD” value was determined as 0.0368 and the “area with substrate ENLYFQF” value amounted to 0.0303. Further, the “area with substrate ENLYFQG” value is 0.0572, the “area with substrate ENLYFQI” value was found to be 0.0308, the “area with substrate ENLYFQK” value stood at 0.0506 and the “area with substrate ENLYFQL” value was 0.0455. Also, the “area with substrate ENLYFQM” value was found to be 0.038, the “area with substrate ENLYFQQ” value amounted to 0.0225, the “area with substrate ENLYFQR” value is 0.058 and the “area with substrate ENLYFQS” value was determined as 0.0492. In addition, the “area with substrate ENLYFQT” value worked out at 0.0415, the “area with substrate ENLYFQV” value was found to be 0.0369 and the “area with substrate ENLYFQW” value was determined as 0.0268.

Turning to MGESLFKGPRDYNPISSSICHLTNESDGHTTSLYGIGFGPFIRTNKHLFRRNNGTLVVQSLHGVFKVKDTTTLQQHLVDGRDMIIIRMPKDFPPFPQKLKFREPQREERICLVTTNFQTKSMSSMVSDTSCTFPSGDGIFWKHWIQTKDGQCGSPLVSTRDGFIVGIHSASNFTNTNNYFTSVPKNFMELLTNQEAQQWVSGWRLNADSVLWGGHKVFMVKPEEPFQPVKEATQL [I43R], the “area with substrate ENLYFQA” value amounted to 0.047, the “area with substrate ENLYFQC” value was 0.0593, the “area with substrate ENLYFQD” value came out at 0.0458 and the “area with substrate ENLYFQG” value was 0.109. For the same variant, the “area with substrate ENLYFQH” value amounted to 0.0521, the “area with substrate ENLYFQI” value turned out to be 0.0384, the “area with substrate ENLYFQK” value is 0.0329 and the “area with substrate ENLYFQL” value was 0.0423. Also, the “area with substrate ENLYFQN” value is 0.0383, the “area with substrate ENLYFQP” value is 0.0416, the “area with substrate ENLYFQR” value was found to be 0.0478 and the “area with substrate ENLYFQS” value stood at 0.0471. Also, the “area with substrate ENLYFQV” value worked out at 0.0505, the “area with substrate ENLYFQW” value was 0.0393 and the “area with substrate ENLYFQY” value was determined as 0.0514.

With MGESLFKGPRDYNPISSSICHLTNESDGHTTSLYGIGFGPFIKTNKHLFRRNNGTLVVQSLHGVFKVKDTTTLQQHLVDGRDMIIIRMPKDFPPFPQKLKFREPQREERICLVTTNFQTKSMSSMVSDTSCTFPSGDGIFWKHWIQTKDGQCGSPLVSTRDGFIVGIHSASNFTNTNNYFTSVPKNFMELLTNQEAQQWVSGWRLNADSVLWGGHKVFMVKPEEPFQPVKEATQL [I43K], the “area with substrate ENLYFQA” value was determined as 0.0564, the “area with substrate ENLYFQC” value came out at 0.0531, the “area with substrate ENLYFQD” value turned out to be 0.027 and the “area with substrate ENLYFQF” value was 0.0587. Also, the “area with substrate ENLYFQG” value came out at 0.0542, the “area with substrate ENLYFQI” value was 0.062, the “area with substrate ENLYFQK” value was found to be 0.0495 and the “area with substrate ENLYFQL” value amounted to 0.0394. For the same variant, the “area with substrate ENLYFQM” value worked out at 0.0526, the “area with substrate ENLYFQN” value came to 0.0387, the “area with substrate ENLYFQP” value was determined as 0.0389 and the “area with substrate ENLYFQQ” value was determined as 0.0449. Moreover, the “area with substrate ENLYFQR” value was 0.0457, the “area with substrate ENLYFQS” value was found to be 0.048, the “area with substrate ENLYFQT” value stood at 0.06 and the “area with substrate ENLYFQW” value came out at 0.0554. Besides, the “area with substrate ENLYFQY” value worked out at 0.0536.

Regarding MGESLFKGPRDYNPISSSICHLTNESDGHTTSNYGIGFGPFIITNKHLFRRNNGTLVVQSLHGVFKVKDTTTLQQHLVDGRDMIIIRMPKDFPPFPQKLKFREPQREERICLVTTNFQTKSMSSMVSDTSCTFPSGDGIFWKHWIQTKDGQCGSPLVSTRDGFIVGIHSASNFTNTNNYFTSVPKNFMELLTNQEAQQWVSGWRLNADSVLWGGHKVFMVKPEEPFQPVKEATQL [L33N], the “area with substrate ENLYFQA” value is 0.106, the “area with substrate ENLYFQC” value was found to be 0.0996, the “area with substrate ENLYFQE” value was determined as 0.0747 and the “area with substrate ENLYFQF” value was 0.0081. In addition, the “area with substrate ENLYFQG” value worked out at 0.0916, the “area with substrate ENLYFQH” value worked out at 0.0678, the “area with substrate ENLYFQI” value was 0.0719 and the “area with substrate ENLYFQK” value is 0.0444. The “area with substrate ENLYFQL” value is 0.0565, the “area with substrate ENLYFQM” value turned out to be 0.0812, the “area with substrate ENLYFQN” value is 0.0722 and the “area with substrate ENLYFQP” value was found to be 0.0609. Besides, the “area with substrate ENLYFQR” value turned out to be 0.0691, the “area with substrate ENLYFQS” value was 0.104, the “area with substrate ENLYFQT” value worked out at 0.0836 and the “area with substrate ENLYFQV” value amounted to 0.0652. Further, the “area with substrate ENLYFQW” value is 0.0732 and the “area with substrate ENLYFQY” value was 0.059.

Regarding MGESLFKGPRDYNPISSSICHLTNESDGHTTSLYGIGFGPFIITNKHEFRRNNGTLVVQSLHGVFKVKDTTTLQQHLVDGRDMIIIRMPKDFPPFPQKLKFREPQREERICLVTTNFQTKSMSSMVSDTSCTFPSGDGIFWKHWIQTKDGQCGSPLVSTRDGFIVGIHSASNFTNTNNYFTSVPKNFMELLTNQEAQQWVSGWRLNADSVLWGGHKVFMVKPEEPFQPVKEATQL [L48E], the “area with substrate ENLYFQA” value amounted to 0.0581, the “area with substrate ENLYFQC” value is 0.0563, the “area with substrate ENLYFQD” value was found to be 0.0493 and the “area with substrate ENLYFQG” value came out at 0.0645. Moreover, the “area with substrate ENLYFQM” value was found to be 0.0563, the “area with substrate ENLYFQN” value was 0.0586, the “area with substrate ENLYFQP” value turned out to be 0.0583 and the “area with substrate ENLYFQS” value was 0.0604. For the same variant, the “area with substrate ENLYFQT” value amounted to 0.0625, the “area with substrate ENLYFQV” value stood at 0.0502 and the “area with substrate ENLYFQW” value was 0.0631.

The values are drawn from the supplement of paper PMC12217912.
